Results as given in the supplement of paper PMC3334620.
Whole data set: some 33,000 sequences, median “E-score (-0.5 to 0.5)” near -0.021, cut for the highest 2% near 0.32. Some of the results follow.

Target: T1, Zap1 (UniProt P47043)
T1 sequence: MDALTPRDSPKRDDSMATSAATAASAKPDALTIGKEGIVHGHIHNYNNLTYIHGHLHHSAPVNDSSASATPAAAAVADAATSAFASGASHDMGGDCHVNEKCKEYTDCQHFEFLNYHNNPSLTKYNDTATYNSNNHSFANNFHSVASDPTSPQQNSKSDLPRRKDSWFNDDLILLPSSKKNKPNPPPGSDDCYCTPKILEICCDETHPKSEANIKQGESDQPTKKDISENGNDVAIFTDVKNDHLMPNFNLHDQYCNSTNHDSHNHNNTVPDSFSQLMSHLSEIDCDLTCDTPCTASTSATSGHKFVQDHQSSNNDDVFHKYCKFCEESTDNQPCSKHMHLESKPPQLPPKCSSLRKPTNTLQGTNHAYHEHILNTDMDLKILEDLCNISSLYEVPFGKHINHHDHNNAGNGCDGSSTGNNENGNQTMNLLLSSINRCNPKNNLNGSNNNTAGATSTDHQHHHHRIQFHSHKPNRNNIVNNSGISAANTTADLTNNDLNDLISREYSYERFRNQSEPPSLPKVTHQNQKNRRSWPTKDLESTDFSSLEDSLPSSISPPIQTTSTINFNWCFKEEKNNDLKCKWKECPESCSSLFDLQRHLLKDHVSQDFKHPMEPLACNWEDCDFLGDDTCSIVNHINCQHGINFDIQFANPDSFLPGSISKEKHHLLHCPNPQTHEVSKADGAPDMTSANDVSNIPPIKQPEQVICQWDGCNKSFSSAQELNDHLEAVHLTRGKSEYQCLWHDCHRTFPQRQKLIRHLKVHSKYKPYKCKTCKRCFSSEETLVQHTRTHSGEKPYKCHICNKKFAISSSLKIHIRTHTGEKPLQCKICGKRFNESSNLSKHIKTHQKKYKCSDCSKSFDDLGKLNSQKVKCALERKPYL
Assay: PBM E-score (8-mer binding enrichment) (E-score (-0.5 to 0.5)); higher = stronger / more preferred TF binding; most listed sequences are background and not binding sites
Details: protein concentration: 200 nM; construct: GST-full length
Method in brief: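 PURExpress in vitro transcription/translation supplied GST-tagged yeast transcription factors, either full-length or DNA-binding domain. Applied at about 100-200 nM to universal all-10-mer Agilent arrays double-stranded by primer extension, the bound protein was detected with fluorescent anti-GST. E-scores, modified Wilcoxon-Mann-Whitney statistics, were given by the Universal PBM Analysis Suite to ungapped eight-base words pooled with their reverse complements after masliner normalisation.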

Sequence	PBM E-score
CACGATTC	-0.0355
AACAAGGC	-0.178
CGCCAAAC	0.0461
GGAGGGAA	-0.213
GAACCTAA	0.194
CAGACAGG	-0.0636
GGCGATCA	-0.283
CCTATACC	0.0497
AGATTGGA	-0.0546
GAAGATGC	-0.163
ACGCGGTG	-0.148
AATACAAA	0.259
CCGATATC	-0.042
AAGGGCTG	0.0148
AATTGCCA	0.0114
ATTGTCCG	0.0743
CCATAGCG	-0.0384
TATCACCA	-0.101
AGCCAGCT	-0.262
AACACCTC	-0.0287
CGCATCGA	0.0417
CTCGATGA	-0.0822

Sequence	PBM E-score
GGTACAAA	0.279
CTCGCCCA	-0.0989
TAAAGCAA	0.0041
CATTGCAA	-0.0747
AATGCCGT	-0.0988
AGGACGAA	-0.00668
ATTGGGGA	-0.128
AATCACTA	-0.0627
CATGAGCC	-0.0413
CGCAGTAG	-0.0911
AGCCTTCA	-0.0688
CTAGTGAC	0.133
TGCAGCCA	-0.0893
GTCAGAGA	-0.0865
TTATGGAA	0.153
ATTGACGA	0.0488
ATGCAAAC	0.0841
ACTTTTAC	0.243
CCCATAAA	0.161
CAGCCTGA	-0.0954
AGCACGGC	-0.151
ACAGGAGT	0.0529

Sequence	PBM E-score
ATCCAATC	-0.134
GAGTCCCC	-0.156
ACTTAGAA	-7e-05
TACGCTGA	-0.0505
AGAAATAA	0.27
AATGGTGA	0.0455
GCCATAGA	-0.0985
CGGCGAAA	0.00754
AATCTTAA	-0.0159
AGACTTAA	-0.011
CGGGCTGA	-0.226
AAACAATG	0.0924
AATAAATG	0.145
CGCCTGTA	-0.332
ATCCGGAG	0.0525
GTGGGCTA	-0.00859
CATGTCTA	-0.118
AGAAGTCG	-0.233
ACATGCAT	-0.0789
GTGGATGA	0.014
CCCACCGG	0.222
ACTGGTCC	-0.101

Sequence	PBM E-score
CGTAGGAG	-0.158
ATAACTAA	0.14
CACGTCAG	-0.301
ATGTTTAC	0.173
AAACCTTG	0.0789
TCCATCAA	-0.0843
GGAGGTGA	0.13
AGTCAACC	-0.0294
GATGCTTA	-0.132
GGCATTAA	-0.131
GGCTGCAC	-0.229
AAGTATCT	-0.107
GCGCAGAA	-0.00572
CGCTCAAC	-0.028
ATAATAAT	0.109
ACATTCGA	0.0222
ACCCCCGC	-0.0913
AGCAGGAT	-0.0934
GAACAGAC	-0.0787
GTTGGGAA	0.0568
